From article PMC10726135
The list shows a part of the results. At the low end of the ranking the order means little. The protein was read in a cell extract, so binding may be indirect.

Target: T1, HNF4alpha2 (COS-7 nuclear extract) (UniProt P41235)
T1 sequence: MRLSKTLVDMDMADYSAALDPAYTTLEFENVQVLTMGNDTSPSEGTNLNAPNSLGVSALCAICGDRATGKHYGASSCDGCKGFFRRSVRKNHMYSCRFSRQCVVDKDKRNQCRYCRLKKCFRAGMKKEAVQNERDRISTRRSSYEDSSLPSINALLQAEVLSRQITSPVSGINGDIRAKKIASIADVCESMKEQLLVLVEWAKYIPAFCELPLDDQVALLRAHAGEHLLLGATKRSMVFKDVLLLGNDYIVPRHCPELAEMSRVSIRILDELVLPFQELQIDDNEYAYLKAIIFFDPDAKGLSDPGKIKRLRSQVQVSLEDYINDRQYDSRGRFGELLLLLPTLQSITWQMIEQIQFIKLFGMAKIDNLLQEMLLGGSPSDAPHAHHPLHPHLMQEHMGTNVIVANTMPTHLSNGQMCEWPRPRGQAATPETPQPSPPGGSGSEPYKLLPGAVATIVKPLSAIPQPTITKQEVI
Assay: protein-binding microarray
Settings: COS-7 nuclear extract on double-stranded Agilent 4x180k PBM; binding buffer, salt, pH and temperature not given; high values mean tight binding; double strand, one strand shown; sequences stand for … in …GCCTAGGGAGATTAGAGTATCGGTCGA

| Sequence | binding signal (log2 normalized intensity) |
| --- | --- |
| GGAAGACTTCATTCAGGTAGCAGGCCTCAG | -1.2 |
| CCCACCAGGGGGAGGCTCAGAGTCTGTGGA | -1.02 |
| CTTCATCAATCAGCCTGATACCAGATCCTT | -1.03 |
| AGCTGGGAGACCACTGGTGTAAGCTCTGGA | -1.05 |
| CAGACTTTCCCCCTATTTCCCTCTGTGCCC | 3.5 |
| GACAAACCAGTCCCATCTGTGCTCATTATT | -0.123 |
| ATTACTCCCACCGTGTGTGCACTTTAAATT | 1.96 |
| TCCTGGGTCCACCGTGCGCAAACACACCCA | -1.11 |
| CCCCTTTGAAGTCTGCCCTCCATGTAACCC | 3.54 |
| TTAAATCCTCGAAGAGTTTGAACTATGTAC | 3.73 |
| TGGGATGAGAGAGCCCCTGTGATACAACGG | -1.21 |
| AGGACTTCTAGAGTGAGCCATTTATCAGGG | -1.07 |
| AGCTTGGGTTCACATTCCAGCTCTGTGACT | -1.2 |
| GGAAAGGGGGTTTGCAACCTTTGATAACCT | 2.12 |
| CCAGATTCCAGCCTCCTGCTCTGGGCTTTC | -1.14 |
| GGGTCCAAAGAACATTGCATTCCTTTGTTT | 1.55 |
| CAATCTGGATTGTACTGTGTCTTGATCTTG | 1.9 |
| ATGCTAAAGTCTACATTCTAGATGACCCCT | 5.66 |
| GACAAAGGCCGCGCCCGCCCGCGCCGGCCT | -1.14 |
| ACAGCACTTTGGCGTGCTGTGTACTTTGAA | 4.15 |
| TTCTTGACCTGCGTAGCCCAAAGGTCAGTC | 4.46 |
| GACATTCCTTCAGCGTGAACTTTGACATGA | 5.5 |
| ACCTCCCCCCACACCATTAGAGAACATGTA | 4.76 |
| GACCAAGGGTCAGTTTGAAATTAGGCAATA | 1.43 |
| CATGGATTTAGATAAGAGGCAGTCCTGGCT | -1.11 |

| Sequence | binding signal (log2 normalized intensity) |
| --- | --- |
| TGCTGGGCCCATTTTCCCATGGTCTGTAGA | 0.143 |
| ATTTTACTCACCCCTTGCTGAGTGGAAAAA | 0.782 |
| CCTTTGGCCTTTACCTGTTACTTATAAATA | 1.06 |
| CTTTGTTCTCCGGGTTCTGCGCAGGGAGGA | 0.767 |
| CCTTTCTACTGCCAGCCAGGGCCACCCATC | -1.02 |
| CCTCTCAAACAAAAATGATGCTACTGGAGG | -1.14 |
| TAGAACCGGGGAGATACTGTAAACCAGCAG | -1.05 |
| ACTGAAAAAGGGGACCGGCCTTTCCCGGCT | -1.12 |
| CTCTGCAAATTTGCCTTGTCCTTAGACAGT | 1.16 |
| TTTTGAGTTTCTGATTAGCCTTTCCAAAGG | 1.29 |
| AAATTCCAGCAGGAATTGATATGTTAGTCT | -0.777 |
| CCCCTGAAATATCATTATCTTGATCAGAAA | 0.475 |
| TCTCAGGGGCCTTGCAATGAGGCGACATCA | -0.851 |
| TGGGTGGATTTGGAGATCAGAGTCCAGCTG | 2.81 |
| TAGGACCTTTGAACCAGAGAAGATTCCAGA | 1.85 |
| ACAGGAGCCCAGAGACAGTGGAATCTACAG | -1.14 |
| AGAGCTTAAAAGCCCAACACGGGCGAAAAA | -1.09 |
| AATCCTCTGGTCTTTGCCCCAGCTCGCTCA | 1.84 |
| GAGAGTCCACTCTCCTATCTTTCCCTCCAC | 0.0293 |
| TCTAAGATTGGCCCTGATAATCAATCCAGC | -0.941 |
| CTTTGAACCCCACACCTCCCTTGCACCAGT | 3.43 |
| GTAGTGGGGAGGGCATGGACTTTGGAATTA | 7.37 |
| AAACCAACCTTTGATCATTCCTGCACAGGA | 2.97 |
| AAAGCTGTCTACAAACACAGAAGTGGACCT | 3.36 |
| TCAAGGCAACTTTGGGCCAAATATTTATGG | 0.826 |

| Sequence | binding signal (log2 normalized intensity) |
| --- | --- |
| CTGATAGCATAAAGCTAGGAGACAACACCT | -1.03 |
| CTTACGCCGGCCCGGTGCGCTGGCCTTGCT | -0.997 |
| GGACCGCAGGGGGCTCCCGGACCCTGACTC | 0.458 |
| CTTTTGGTATGCAAGGCATGGTGCTTCGCA | 1.26 |
| TTATCTACCAGGATGTGTGATCTTGGGTAA | 1.31 |
| GGTTGGCTCTGAAGCAAGGATCAAAGTCAC | 2.1 |
| GATTCCACACTGGCTAGATAAGGCTGAAAC | -1.13 |
| TTGCCAAGTCCTTCCCAAACTATAGATTTG | -1.06 |
| AGGGCCCGCTGATCCCGGGAGGGAGAGAAG | -1.15 |
| CTGGCCAGAAGGTCAGAGATCAGGTCTCTT | 0.804 |
| GTAATGAAAGGAAATCATTCCAGAAAGACA | -1.12 |
| GAGGGATTTTCAGTATACTGACTTATCAGG | 0.535 |
| TTGGAATCAAACAGATGTAGACATTGGAAT | 2.94 |
| AAAGCTCAGATTGCCTAAAGGGGATTTTCT | -1.11 |
| GACCCGCCGCCCGAGGTCACTGTATGCCCG | 2.18 |
| GGGAGTCCTGGGCGTTGCTCTCCCACCCCG | 3.15 |
| GGGAGATTCCTGACATTCAGTCTTTGTCTT | 0.983 |
| CTCAGGCACACAAAAAAAACCACTCTTATC | -1.07 |
| CTACCCTTCATCTTCAATACAGAGTCCAAA | 3.11 |
| TCCCAACAGGAGATTACTTCAAGGCTGGAG | -1.14 |
| TCTTGCAGTCCACATTTCTGAGCTGTGGAA | -0.996 |
| GCAAGACTTCTTCAGGGAGACTTCCAGGGA | -0.792 |
| ACCTATGAGACATTTTGTCTTTTCTCCCCT | 2.6 |
| AAATCAATCAAACTCTCTGTGGATGTATGT | 2.27 |
| TAAGACATGCTCGCAGCTGCATAGATAAGA | -1.11 |

| Sequence | binding signal (log2 normalized intensity) |
| --- | --- |
| GAGCAAAGATCATCTGGTGGCTATCAAGCA | -1.17 |
| TTGAAGAGCACAGGGTCAGCAGATCTTTGT | 0.32 |
| TCCCTTGCTCCACCCTTCTATCCCCTTATC | 2.8 |
| TGCAGACAGTCCCTCCTCCAGCATAGGCTA | -1.1 |
| GTGATCAATGTGACTGGAGCAGAGCGATCA | -1.12 |
| AGTTCAGCCCTTAGGACCAGGGGGGGAATG | -1.22 |
| TCAACAGAGTGCTTAATCTCTGCTCATAAT | -1.15 |
| AGGTGCTGCACCTTGAAACCCCTCCTTACA | 3.27 |
| AGGGGTGTGTTGACCGATAACCCTCCTGAA | 0.229 |
| AGAGAAGCACATCCAGGCAGCTTCAGAAAC | -1.08 |
| GCAGTGACATGATCAAAGTTCATTGTAGCC | 3.61 |
| GATGTTTGGTCTTATTATCTTCAATGATAA | 1.4 |
| CATCAATTTAGACCGTGTGGAAACCTAACT | -0.752 |
| GTCAGCCACCCCTCCTCCTGGGGGCTTTTG | 2.13 |
| TATGAGGCTTCCATTCTCAGGCAGATGGGC | -0.98 |
| GTTTACTCAGTCATACCACATGGATGGATT | -0.125 |
| GTGTCAATTCTCATTCATCCAAGGACTTTG | 2.23 |
| TTCCCTTTGTATGGCAGGGGTTAACCTCTA | 2.72 |
| GAGCAGGCCTGGGCTTGCAAAGGTCAGGTT | 3.18 |
| CACACACACACACACACCCCACACACCAAA | 3.12 |
| GCACATTCCTTTCCCTTTATTTAGCCTCAC | 1.58 |
| CGTTAGGCTACAGTGGTAACCACAGTACTG | -1.14 |
| TAGGTTAGATAGGAATCTGGATGGCTGAGC | -0.00634 |
| GAAAACCTTAGGCGAATGTCAAAGGTCTTT | 2.88 |
| CGCTCTGAGTGACCTTTCACCCGCGCCCAG | 5.48 |

| Sequence | binding signal (log2 normalized intensity) |
| --- | --- |
| CTTGGGTGTATGGGTATAGGCGCGCGTGTG | 1.91 |
| AGAAACAGCTGGATTGTTACATCATAGTGT | 1.31 |
| ATCAGCTTATCTCAAGAATTGTCTAACCGC | -1.11 |
| TTTTTTTTCTTTCTTTTCCCAAACCACGTT | 1.4 |
| TTTTGTATGCATAAGGCCTTGGACCTTCTG | 2.44 |
| TAAGAAATCAGGAGCAAAGGTTGGGGGTGG | 0.963 |
| GCCACATCCTGTCTCCTTTAACCTTCATTC | 1.84 |
| CTCACCTTCAGATGCCATGTCTAAAGGCTG | -0.339 |
| CAGTCCACATGGTGTCTTTTGTTGTTGTTA | 2.33 |
| ACCCAGTTCGTGCTTCTTGGCCTCTTTGTT | 1.98 |
| CCACAAAGGCCAGAGAAAGAGAGAGTTAGT | -1.07 |
| GGCCAGCGACTTTAGGGGCCAAGGGAAAAC | -1.08 |
| CTGCAGTGTGACCTTTGCCTTCTTGACATC | 5.94 |
| TCTGGGATCTCAGGGTGGACTTTAAACATT | 5.91 |
| GACGCGCTTGGGCGACGGACGCGCCGCGCC | -1.04 |
| GATTGTTGTGTGCCCACCTGGGCAACAGGG | 0.706 |
| GATAAGGCTAATCCTTACACAGCAGCTTTA | -1.16 |
| AGCCCAGGTAACATACCAAAAAGCATAACT | -1.28 |
| GTGATTCAACTCTGACCCATAATAACGTCT | 1.57 |
| AGTTCTGAATGAGCAGACTGAGTTGCAGGA | -0.751 |
| TCTAAGAAATAGGTTAAAGAGTGGTCTTGG | 1.38 |
| CAACATACAGAGGCTCTGAGAGTCTCAGTG | -1.07 |
| TAAAGTGGATTGCTGGCCTTTTATCTTTTA | 1.08 |
| CTGTTTGTATAACCCTGGCTGGAGTTGCTG | -1.08 |
| TGGAACACAGAGGGAAATGCAAACATTTCT | -1.01 |

| Sequence | binding signal (log2 normalized intensity) |
| --- | --- |
| GGGTATGAATTTAACCTTTGCTCTCTGAAA | 5.68 |
| AGGTACTAAGAGATTTGAATATGTACATGG | 1.38 |
| ATGTCTTCTTTTATCACTTTGTAATGTCCC | 2.22 |
| CCTTAGATCCACGGAGAATGTAGACCTTTA | 1.88 |
| CCCACTTCAGGCAGGAATGCTGAACAATTG | 0.142 |
| GGCTCCAGAGTTTAATACCTCTGATCACTA | -1.11 |
| TATAGGGCATACCCTTCCTGCTGACAAACT | -1.14 |
| CCAGGAGCAGGATAGAAGGAAACAGTTCAG | -1.09 |
| CAAGCAATCTGGCTGCAGAGTCCAAGATGC | 0.917 |
| TTTGCTTATCTGATAAGTCCATACCTAGTC | 0.542 |
| GTCTAGCGCAAATGATCAAAGGTTGGTTTT | 3.97 |
| AACAAGTTCTGCAGACTCCCTAGAAGAGTG | -1.1 |
| CCAGAAGGAATGAGACATGAATCCATCCCA | -1.25 |
| TTCTATGTTCACATCTCCTCTGGAGGCCAA | 0.985 |
| TAACCCTACAGTCCTGCCACATCCCCCACA | 4.26 |
| TCAGGTCAGTAGCCCAGGGTCACACAGATG | 1.72 |
| TTCCATTGTACTCAGTATGTGCTGACTGAC | 0.765 |
| CCGGGGAAAGGGAAAAAGGGAGATAGGTTA | -1.11 |
| GAGAAACTTCTTTGTGATGTGTGGATTCAG | 1.38 |
| GATGGATATATGTACAGCTGTGTATGTGGC | 1.48 |
